{"source": "PubChem BioAssay AID720569", "about": "(National Center for Advancing Translational Sciences (NCATS), 2013)", "note": "Inconclusive results, whose numbers are uncertain, are shown with a selection of clear calls. A potency beside an inconclusive call is a rough fit, not a confirmed value. The source made the active and inactive calls. Calls come from the whole dose curve; as a rule, active = well fitted inhibition curve with a large enough effect; inconclusive = small, poorly fitted or top-dose-only effect; inactive = no such curve, though single readings can be large or run the other way. Potency is the fitted concentration of half-maximal effect; tags give direction and shape of the fitted curve."}
{"test_system": "pyruvate kinase (Trypanosoma brucei)", "test": "qHTS of Trypanosoma Brucei Inhibitors: Confirmatory Assay for Cherry-picked Compounds; note: nearly all actives have a fitted effect of over 70% in size", "conditions": "recombinant TbPYK, Kinase-Glo ATP luminescence; series mostly up to 76.9 µM", "how_it_was_run": "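Recombinant T. brucei PYK with substrate was preincubated with compound, then ADP (130 uM final) started the reaction, run 45 min at room temperature. ATP formed was read by Kinase-Glo Plus luminescence; concentration-response curves were fitted from normalized data.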"}
{"smiles": "CN(C)c1ccc(/C=N/NC(=O)C2COc3ccccc3O2)o1", "note": "(stereo not drawn)", "Potency": "inconclusive: 28.2 µM [inhibitor, single point]"}
{"smiles": "S=C1SCN(Cc2ccccc2)CN1Cc1ccco1", "Potency": "inconclusive: 10 µM [inhibitor, partial curve, poor fit]"}
{"smiles": "O=C(NCCCO)c1ccc2nc(-c3ccco3)c(-c3ccco3)nc2c1", "Potency": "active: 22.4 µM"}
{"smiles": "Cc1cc(C)nc(Sc2nc(Cl)nc(N(c3ccccc3)c3ccccc3)n2)n1", "Potency": "inconclusive: 31.6 µM [inhibitor, single point]"}
{"smiles": "COCCNC(=O)Nc1ccc2nc(-c3ccco3)c(-c3ccco3)nc2c1", "Potency": "active: 11.2 µM"}
{"smiles": "CC(=S)/C=C1\\Sc2ccccc2N1C", "Potency": "inconclusive: 14.1 µM [inhibitor, partial curve]"}
{"smiles": "CCN(CC)c1ccc(C(=C2C=CC(=[N+](CC)CC)C=C2)c2ccccc2)cc1", "Potency": "active: 35.5 µM"}
{"smiles": "NS(=O)(=O)c1ccc(CCNC(=O)c2cncc(Br)c2)cc1", "Potency": "inactive"}
{"smiles": "CCn1c(=O)cc(C(F)(F)F)[nH]c1=S", "Potency": "inconclusive: 28.2 µM [inhibitor, partial curve]"}
{"smiles": "O=C1C=CC(=O)N1c1ccc(-c2nc3ccccc3o2)cc1", "Potency": "inactive"}
{"smiles": "CCCN1C(=O)/C(=C\\C=C2/C=CN(CC)c3ccccc32)SC1=S", "Potency": "active: 15.8 µM"}
{"smiles": "Oc1ccc(/C=N/Nc2nccnc2Cl)c(O)c1", "Potency": "inconclusive: 31.6 µM [inhibitor, single point]"}
{"smiles": "Cc1ccc2sc(NNC(=O)C3COc4ccccc4O3)nc2c1C", "note": "(stereo not drawn)", "Potency": "inconclusive: 50.1 µM [inhibitor, single point]"}
